Reference: publication PMC4336329 (PLoS ONE, 2015)
In all, about 310,000 compounds went through this assay and about 2,200 (0.71%) showed an effect of 50% or more. Effects have a minus sign here. This is one part of the list.

Biological target: human ether-à-go-go-related gene (hERG) potassium channel (human, UniProt Q12809)
Assay: primary screen, population patch clamp on CHO cells stably expressing hERG

human ether-à-go-go-related gene (hERG) potassium channel, sequence (Q12809 whole entry, looked up): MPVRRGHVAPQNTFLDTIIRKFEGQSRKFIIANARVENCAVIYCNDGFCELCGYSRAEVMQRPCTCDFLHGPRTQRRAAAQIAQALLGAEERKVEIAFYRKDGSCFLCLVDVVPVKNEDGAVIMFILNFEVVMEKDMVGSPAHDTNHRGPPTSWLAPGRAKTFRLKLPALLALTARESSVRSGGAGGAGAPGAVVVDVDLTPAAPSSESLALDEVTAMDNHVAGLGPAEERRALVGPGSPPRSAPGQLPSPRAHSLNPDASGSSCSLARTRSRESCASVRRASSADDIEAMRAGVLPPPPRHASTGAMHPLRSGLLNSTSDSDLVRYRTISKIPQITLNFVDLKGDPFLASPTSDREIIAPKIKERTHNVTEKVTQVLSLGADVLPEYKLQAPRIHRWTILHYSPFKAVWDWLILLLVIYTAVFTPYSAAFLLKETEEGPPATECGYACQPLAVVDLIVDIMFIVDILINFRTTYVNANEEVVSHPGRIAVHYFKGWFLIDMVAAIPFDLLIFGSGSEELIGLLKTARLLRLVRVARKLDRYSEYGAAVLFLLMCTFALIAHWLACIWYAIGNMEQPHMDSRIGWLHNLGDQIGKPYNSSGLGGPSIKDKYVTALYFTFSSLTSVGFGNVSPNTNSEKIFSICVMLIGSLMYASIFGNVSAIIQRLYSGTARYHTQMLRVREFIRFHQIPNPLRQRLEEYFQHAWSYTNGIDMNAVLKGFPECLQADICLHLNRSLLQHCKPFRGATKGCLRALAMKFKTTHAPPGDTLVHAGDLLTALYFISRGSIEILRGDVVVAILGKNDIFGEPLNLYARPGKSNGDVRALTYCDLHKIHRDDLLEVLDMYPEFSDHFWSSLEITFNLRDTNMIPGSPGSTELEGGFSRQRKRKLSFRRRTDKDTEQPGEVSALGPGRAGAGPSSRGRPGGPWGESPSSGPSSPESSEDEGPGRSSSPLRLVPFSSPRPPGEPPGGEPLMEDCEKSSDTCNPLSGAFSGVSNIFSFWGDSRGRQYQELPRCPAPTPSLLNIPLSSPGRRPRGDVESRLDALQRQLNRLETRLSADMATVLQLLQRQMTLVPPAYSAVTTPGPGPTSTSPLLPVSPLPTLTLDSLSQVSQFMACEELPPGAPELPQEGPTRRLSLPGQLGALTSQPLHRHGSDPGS

Compound	hERG current change (%, negative = inhibition) at 1uM
Cc1cc(NC(=O)CSc2ccc3c(c2)OCCO3)no1	0.276%
COc1ccc(NC(=O)CS(=O)(=O)c2cn(CC(=O)N3CCOCC3)c3ccccc23)cc1	9.07%
CCN(CC)C(=O)c1cccc(NC(=O)c2cc(C3CC3)nc3c2cnn3C(C)C)c1	5.55%
CCOc1ccccc1NC(=O)c1cnc(NS(=O)(=O)c2ccccc2)nc1	17.4%
O=C(N/N=C/c1ccoc1)c1cc(Br)ccc1O	7.58%
COc1ccc(CCNC(=O)c2ccccc2SC)cc1	10.1%
Cc1ccccc1NC(=S)NNC(=O)c1ccoc1C	5%
COc1ccccc1CNCC(c1ccccc1)c1ccccc1	-2.66%
O=S(=O)(Nc1cccc(-n2cnnn2)c1)c1ccccc1F	15.9%
C=CCN(Cc1nc(-c2ccccc2)no1)C(=O)c1ccoc1C	9.08%
CC(C)(C)CC(=O)NC(=S)N1CCCCCC1	13.1%
Cc1ccc(OC(C)C(=O)O)cc1C (stereo not drawn)	0.563%
COc1ccc2cc(CCNC(=O)c3cccc([N+](=O)[O-])c3)c(=O)[nH]c2c1	-14.2%
Cc1ccc(Cn2ncc3c(N4CCN(CC#N)CC4)ncnc32)cc1	3.22%
CC(C(=O)Nc1ncccn1)(c1ccccc1)c1ccccc1	8.18%
CC(C)Cc1cc(CN2CCCC(CO)(Cc3cccc(Cl)c3)C2)[nH]n1 (stereo not drawn)	-14.7%
CN(C)C=O.CN(C)S(=O)(=O)c1cccc(NC(=O)CSc2ncnc3ccccc23)c1	1.3%
CCCCC1(C)NC(=S)N2N1C(=S)NC2(C)CCCC (stereo not drawn)	11.9%
Cc1cccc(N(CC(O)CN(C)C)S(=O)(=O)c2ccccc2)c1.Cl (stereo not drawn)	-50.1%
Cc1ccc(NC(=O)c2cc(-c3cccs3)nc3ccccc23)nc1	10.5%
COc1cccc(S(=O)(=O)c2nc(C)c3c(n2)CCC3)c1	-30.7%
Cc1ccc(NC(=O)CNC(=O)Cn2cnc3sc(C)c(C)c3c2=O)cc1F	12.2%
O=C(CCSCc1ccccc1Cl)NC1CCCCC1	23.2%

Compound	hERG current change (%, negative = inhibition) at 1uM
COc1cccc(N2CCN(C(=O)c3ccc(CS(=O)c4ccccc4Cl)o3)CC2)c1 (stereo not drawn)	-10.7%
CC(C)C(=O)NC(=S)Nc1ccc(S(=O)(=O)N2CCCC2)cc1	14.2%
CC1CCC(=NNc2ccc(C(F)(F)F)cc2[N+](=O)[O-])CC1 (stereo not drawn)	11.4%
Nc1nnn(CC(=O)N/N=C/c2cccc3ccccc23)n1	3.93%
CCN(CC)c1ccc(C(=O)O)cc1	6.39%
CCc1ccccc1Nc1nc(N)nc(CSc2nnc3ccccn23)n1	10.5%
CN1C(C(=O)Nc2ccc(OC(F)(F)F)cc2)=CC(c2ccc3c(c2)OCO3)=NS1(=O)=O	14.9%
COc1ccccc1CNC(=O)c1ccc(Br)o1	6.07%
Cc1cc(O)cc(=O)n1CCc1ccccc1	13.3%
Cn1cc(C(=O)C(=O)N2CCOCC2)c2ccccc21	3.16%
CCOC(=O)N1CCc2c(sc(NC(=O)CN(CC)CC)c2C#N)C1	9.35%
CC1CCc2cccc3c2N1c1cc(C#N)c(C#N)cc1O3 (stereo not drawn)	-1.5%
O=C(Nc1ccc(S(=O)(=O)Nc2ccccn2)cc1)C(F)(F)F	3.12%
O=C(c1cc(-c2ccco2)on1)N1CCc2ccccc2C1	13.4%
CCN(CC)S(=O)(=O)c1ccc(N2CCCC2)c(NC(=O)CC(C)(C)C)c1	7.53%
O=C(O)CCC(=O)CCC(=O)c1ccc(Cl)cc1	11.7%
COCc1ccc(C(=O)NC2CC(C)(C)Cc3c2cnn3-c2ccc(C)cc2)o1 (stereo not drawn)	-1.08%
COC(=O)C1CN(C(=O)COc2ccc(C)c(C)c2)c2ccccc2O1 (stereo not drawn)	9.99%
CCN(CC)C(=O)Cn1cc(S(=O)(=O)CC(=O)Nc2cc(C)on2)c2ccccc21	-0.677%
CN1/C(=C/C(=O)c2cccs2)Sc2ccccc21	15.5%
CC(C)C(=O)Nc1nnc(SCC(=O)NC2CC2)s1	11.1%
O=S(=O)(c1cccs1)N1CN(Cc2ccccc2)c2nc3ccccc3nc21	-2.11%
CCc1nc2ccc(C(=O)Nc3ccc(NC(C)=O)cc3)cc2nc1CC	13.2%

Compound	hERG current change (%, negative = inhibition) at 1uM
S=C(Nc1cccc(Cl)c1)Nc1ccc2c(c1)OCCO2	18.2%
COCCNC(=O)C1CCCN(S(=O)(=O)c2c(C)noc2/C=C/c2cccs2)C1 (stereo not drawn)	0.102%
CC(=O)c1ccc(OC(=O)c2cc3ccccc3oc2=O)cc1	7.83%
O=C(COC(=O)Cc1cccs1)Nc1ccccc1F	8.8%
Cc1nc([N+](=O)[O-])cn1Cc1cccc2ccccc12	9.37%
CCCCN(C(=O)c1ccc(Cl)c(S(=O)(=O)N2CCOCC2)c1)c1c(N)n(CCC)c(=O)[nH]c1=O	8.98%
Cc1cc(Cl)ccc1NC(=O)C1CCN(S(C)(=O)=O)CC1	7.3%
CCOC(=O)C1=C(C)NC2=C(C(=O)CC(C)(C)C2)C1c1cccc(C)n1 (stereo not drawn)	-1.71%
CCOC(=O)c1ccccc1Cc1nc2ccccc2c(=O)[nH]1	5.37%
COc1cc(NC(=O)CSCC(=O)Nc2cc(OC)cc(OC)c2)cc(OC)c1	5.8%
Nc1nc(SCC(=O)Nc2ccc3c(c2)OCO3)n[nH]1	9.29%
Cc1ncsc1C(=O)N1CCCC(C(=O)c2ccc3ccccc3c2)C1 (stereo not drawn)	13.3%
Cc1cccc(-n2ncc(C#N)c2-n2cccc2)c1	4.1%
CC1CCN(C(=O)c2cc(N3C(=O)C4C5CCC(C5)C4C3=O)ccc2Cl)CC1 (stereo not drawn)	1.42%
CCOc1ccc(S(=O)(=O)N(CC)CC(=O)NCc2ccncc2)cc1C	11.1%
CS(=O)(=O)O.Cc1cccc(/C=C2/C(=O)/C(=C/c3ccccc3C)C3CCC2N3C)c1 (stereo not drawn)	8.95%
COc1ccc(C(=S)N2CCCCC2)cc1Br	15.6%
CN(C)CCCNC(=S)N(Cc1cccs1)Cc1cc2cc3c(cc2[nH]c1=O)OCCO3	11.7%
CCC1COCCS(=O)(=O)N1Cc1ccccc1C (stereo not drawn)	1.86%
Cc1ccccc1CNC(=O)c1ccccc1NS(C)(=O)=O	10.8%
COC(=O)C1=C(c2ccc(F)cc2OCc2ccccc2)C[C@@H]2CC[C@H]1N2C(=O)N1CCCCC1	3.4%
COC(=O)C1=C(C)N(Cc2ccco2)C(=O)N[C@H]1c1ccccc1	6.02%
CCCCNC(=O)NC1C(NC(=O)NCCCC)N(C)C(=O)N1C (stereo not drawn)	12.1%

Compound	hERG current change (%, negative = inhibition) at 1uM
COc1ccc(CNCC(O)COc2ccc(C(C)(C)c3ccccc3)cc2)cc1.O=C(O)C(=O)O (stereo not drawn)	12.2%
CSc1ccc(CN(C)C(=O)C2CCN(C(=O)Nc3ccccc3)CC2)cc1	-34.1%
CCOc1ccc(C(=O)Nc2ccc(N3CCN(C(C)=O)CC3)cc2)cc1[N+](=O)[O-]	3.18%
O=C(c1cc([N+](=O)[O-])ccc1N1CCOCC1)N1CCN(S(=O)(=O)c2ccc(F)cc2)CC1	5.85%
Cl.c1cc(Nc2ncnc3sc4c(c23)CCC4)ccn1	7.38%
COc1ccc(C/C(N)=N/OC(=O)c2ccc(Cl)cc2)cc1	13.7%
Cc1cc(CNC(=O)COc2c(F)c(F)cc(F)c2F)c2ccccc2n1	3.64%
CCC(=O)Nc1cccc(NC(=S)NC(=O)c2ccc(Cl)cc2Cl)c1	2.34%
COc1ccccc1/C=C(/C(=O)OCC(N)=O)c1ccccc1	10.6%
Cc1cc(N2CCN(C/C=C/c3ccccc3)CC2)n2ncnc2n1	-52.2%
CC1CC(C)CN(S(=O)(=O)c2ccc(NC(=O)C3COc4ccccc4O3)cc2)C1 (stereo not drawn)	12.1%
COc1ccc(NC(=O)CC2C(=O)NC3CCCCC3N2C(=O)c2ccc(F)cc2)cc1 (stereo not drawn)	11.5%
C/C(=N\NC(=O)c1ccc(OC2CCCC2)cc1)c1ccc(O)cc1	12.9%
CC1CN(C)C(C)C/C1=N/Oc1ccccc1[N+](=O)[O-].Cl (stereo not drawn)	2.66%
CC1C/C(=C/c2cccs2)C(=O)/C(=C/c2cccs2)C1 (stereo not drawn)	11.7%
O=C1Nc2ccccc2C(O)(C(=O)NCc2ccc3c(c2)OCO3)N1c1ccc(Cl)c(Cl)c1 (stereo not drawn)	18.1%
Cc1ccc2cc(CCNC(=O)CC(C)C)c(=O)[nH]c2c1	7.29%
O=C(Cn1cnc2c(nnn2-c2ccccc2)c1=O)NCc1ccc(F)cc1	1.19%
COC(=O)c1cccc(Nc2ncnc3ccc(C)cc23)c1	-3.79%
O=C(COC(=O)c1ccc(O)cc1)Nc1nccs1	19.3%
Cc1ccc(S(=O)(=O)NCCC(=O)NCC(c2cccs2)N(C)C)cc1 (stereo not drawn)	3.8%
